Source: the supplement of paper PMC12217912
The other results are listed elsewhere or left out. The full chains were built here from the parent and the listed change. Values near 0.05 are background.

B1: TEV protease; numbered along this chain (parent)
chain: MGESLFKGPRDYNPISSSICHLTNESDGHTTSLYGIGFGPFIITNKHLFRRNNGTLVVQSLHGVFKVKDTTTLQQHLVDGRDMIIIRMPKDFPPFPQKLKFREPQREERICLVTTNFQTKSMSSMVSDTSCTFPSGDGIFWKHWIQTKDGQCGSPLVSTRDGFIVGIHSASNFTNTNNYFTSVPKNFMELLTNQEAQQWVSGWRLNADSVLWGGHKVFMVKPEEPFQPVKEATQL

Variants of: B1
Test: raw area under fraction-flipped curve 0-4 h after induction (AUC4h, not background-subtracted), DNA-recorder readout of cleavage of the substrate (dimensionless); higher = more cleavage of the substrate by the protease variant
Details: temperature: 34 °C; time window: 0-4 h after rhamnose induction
Procedure: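 In vivo DNA recorder in E. coli TOP10(DE3) ΔrhaA at 34 °C. Each TEVp single-site mutant (parent TEVp 0) is paired with a single-site variant of the 7-mer TEVs (canonical ENLYFQ|S). The substrate sits between flexible linkers in a Bxb1-sfGFP-TEVs-SsrA fusion, so cleavage stabilises Bxb1 and speeds flipping of a recombination array, read by NGS. The value is the raw area under the fraction-flipped curve over 0-4 h after rhamnose induction (AUC4h), with ≥20 reads per time point. It is not background-subtracted; inactive controls average about 0.047.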
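Note: Bxb1 expression induced with 0.2% (w/v) L-rhamnose at OD600 near 0.5, cultures sampled hourly, flipped fraction per protease–substrate barcode pair counted by paired-end Illumina sequencing.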

Row | Variant | area with substrate ENLYAQS | area with substrate ENLYEQS | area with substrate ENLYGQS | area with substrate ENLYHQS | area with substrate ENLYIQS | area with substrate ENLYKQS | area with substrate ENLYMQS | area with substrate ENLYNQS | area with substrate ENLYPQS | area with substrate ENLYQQS | area with substrate ENLYSQS | area with substrate ENLYTQS | area with substrate ENLYWQS | area with substrate ENLYYQS | area with substrate ENLYDQS | area with substrate ENLYRQS | area with substrate ENLYVQS | area with substrate ENLYCQS | area with substrate ENLYLQS
1 | K142I | 0.0558 | 0.0504 | 0.0506 | 0.067 | 0.0982 | 0.0636 | 0.065 | 0.0689 | 0.0567 | 0.0655 | 0.0625 | 0.061 | 0.0757 | 0.0115 | – | – | – | – | –
2 | K142L | 0.0741 | 0.0625 | 0.0741 | 0.067 | 0.124 | 0.0543 | 0.0834 | 0.0691 | 0.0708 | – | – | – | 0.102 | 0.0755 | 0.0684 | 0.0481 | 0.121 | – | –
3 | Q146M | 0.0468 | 0.076 | 0.09 | 0.0924 | 0.145 | 0.0805 | 0.148 | 0.0692 | – | 0.0569 | 0.0924 | 0.124 | 0.0906 | 0.122 | 0.0603 | – | 0.179 | 0.135 | 0.104
4 | T147Q | 0.0554 | 0.0475 | – | 0.0722 | 0.0415 | 0.0606 | – | 0.0616 | 0.059 | 0.0623 | 0.0802 | – | 0.0585 | – | 0.0665 | – | 0.061 | – | –
5 | K148E | 0.0662 | 0.0652 | 0.0669 | 0.0634 | – | 0.0709 | 0.0505 | 0.0777 | 0.0657 | 0.0703 | 0.077 | 0.078 | 0.0667 | 0.0581 | 0.0614 | 0.0681 | 0.0778 | 0.0612 | 0.0749
6 | K148R | 0.0874 | 0.0807 | 0.0642 | – | 0.126 | 0.0527 | 0.0852 | 0.0669 | 0.0748 | – | – | – | 0.101 | – | – | – | 0.108 | – | 0.0936
7 | G150H | 0.0662 | 0.0722 | 0.0623 | 0.0629 | 0.0609 | 0.0567 | 0.06 | 0.0622 | 0.054 | 0.0791 | 0.102 | 0.0694 | 0.0322 | – | 0.0499 | 0.0563 | 0.0512 | – | 0.0538
8 | G150V | 0.0565 | 0.0648 | 0.0532 | 0.0574 | 0.0627 | 0.051 | 0.0592 | 0.0678 | 0.0586 | 0.0584 | 0.0681 | 0.0567 | 0.0594 | 0.0542 | 0.0611 | 0.0694 | 0.0593 | 0.0859 | 0.0461
9 | Q151E | 0.0724 | 0.0728 | 0.0793 | – | 0.123 | 0.0504 | 0.0952 | 0.0717 | 0.0755 | – | – | – | 0.0686 | 0.0742 | 0.0608 | 0.064 | 0.0756 | 0.0664 | 0.0821
10 | C152P | 0.0586 | 0.0607 | – | 0.0506 | – | 0.0643 | 0.0573 | 0.0555 | 0.0579 | – | 0.0586 | – | 0.045 | – | 0.0673 | 0.0587 | 0.0553 | 0.057 | 0.054
11 | S154W | 0.0677 | 0.0696 | 0.0608 | – | – | 0.0627 | 0.0552 | 0.0688 | 0.0672 | – | – | 0.083 | 0.0605 | 0.0981 | 0.0527 | 0.0662 | 0.0456 | 0.07 | 0.0677
12 | P155D | 0.047 | 0.0484 | 0.0488 | 0.0562 | 0.0402 | 0.0448 | 0.0444 | 0.0536 | 0.0535 | 0.0621 | 0.0542 | 0.0557 | 0.0455 | 0.0762 | 0.0613 | 0.0358 | – | – | 0.0617
13 | L156E | 0.0587 | 0.0509 | 0.0529 | 0.0486 | 0.0481 | 0.0538 | 0.0441 | 0.0514 | 0.0579 | 0.0554 | 0.0414 | 0.0511 | 0.0512 | – | 0.055 | 0.0511 | 0.055 | 0.0568 | 0.0495
14 | L156Q | 0.0495 | 0.0613 | 0.0589 | 0.0542 | 0.0721 | 0.0213 | 0.0595 | 0.0553 | 0.0452 | 0.0531 | – | – | 0.0591 | 0.0504 | 0.0627 | 0.0555 | – | 0.0581 | –
15 | V157D | 0.0484 | 0.0594 | 0.0422 | 0.055 | 0.0396 | 0.0232 | 0.0499 | 0.0433 | 0.0529 | 0.0236 | – | – | – | 0.0434 | 0.0611 | 0.0459 | 0.0368 | – | 0.0365
16 | V157L | 0.0713 | 0.0701 | 0.0649 | 0.0571 | 0.114 | 0.0452 | – | 0.0627 | 0.0962 | – | 0.064 | – | 0.0881 | 0.0583 | 0.0463 | 0.0529 | 0.116 | 0.0914 | 0.0728
17 | V157S | 0.0644 | – | 0.0553 | 0.0627 | 0.0818 | 0.0606 | 0.0716 | 0.0689 | 0.0659 | 0.0763 | – | – | 0.063 | 0.0479 | 0.0586 | 0.0539 | 0.0803 | – | –
18 | D161A | 0.0686 | 0.0849 | 0.0469 | 0.0646 | 0.0699 | 0.0343 | 0.0486 | 0.0807 | 0.0562 | – | 0.0729 | 0.0525 | 0.0527 | – | 0.0512 | 0.0582 | 0.0628 | – | 0.061
19 | D161W | 0.0519 | 0.0483 | 0.0485 | 0.048 | 0.0542 | 0.0323 | 0.0155 | 0.041 | 0.0524 | 0.0504 | 0.0528 | 0.0488 | 0.0592 | 0.0538 | 0.0523 | 0.035 | 0.0425 | 0.0614 | 0.0469
20 | I164D | 0.0637 | 0.058 | 0.0522 | 0.057 | – | 0.0538 | – | 0.0546 | 0.0686 | 0.0472 | 0.0528 | 0.0531 | 0.0457 | 0.0613 | 0.0493 | 0.0676 | – | 0.0521 | 0.0476
21 | G166A | 0.0557 | 0.0536 | 0.0492 | 0.0511 | 0.0606 | 0.0469 | 0.0649 | 0.0486 | 0.046 | 0.0632 | 0.0567 | – | 0.0349 | 0.0451 | – | 0.0513 | 0.0517 | 0.0519 | –
22 | G166D | 0.0433 | 0.0594 | 0.0467 | 0.0468 | 0.048 | 0.071 | 0.048 | 0.0572 | 0.0518 | 0.0589 | 0.0395 | – | 0.0484 | 0.0341 | 0.0575 | 0.0546 | 0.0436 | 0.0673 | –
